Structures are written as SMILES. Screen size: about 310,000 compounds; about 2,200 (0.71%) showed an effect of 50% or more. Effects have a minus sign here. The list shows a part of the results.

The target in the assay is human ether-à-go-go-related gene (hERG) potassium channel (human, UniProt Q12809). As to the kind of experiment: primary screen, population patch clamp on CHO cells stably expressing hERG.
human ether-à-go-go-related gene (hERG) potassium channel, sequence (Q12809 whole entry, looked up): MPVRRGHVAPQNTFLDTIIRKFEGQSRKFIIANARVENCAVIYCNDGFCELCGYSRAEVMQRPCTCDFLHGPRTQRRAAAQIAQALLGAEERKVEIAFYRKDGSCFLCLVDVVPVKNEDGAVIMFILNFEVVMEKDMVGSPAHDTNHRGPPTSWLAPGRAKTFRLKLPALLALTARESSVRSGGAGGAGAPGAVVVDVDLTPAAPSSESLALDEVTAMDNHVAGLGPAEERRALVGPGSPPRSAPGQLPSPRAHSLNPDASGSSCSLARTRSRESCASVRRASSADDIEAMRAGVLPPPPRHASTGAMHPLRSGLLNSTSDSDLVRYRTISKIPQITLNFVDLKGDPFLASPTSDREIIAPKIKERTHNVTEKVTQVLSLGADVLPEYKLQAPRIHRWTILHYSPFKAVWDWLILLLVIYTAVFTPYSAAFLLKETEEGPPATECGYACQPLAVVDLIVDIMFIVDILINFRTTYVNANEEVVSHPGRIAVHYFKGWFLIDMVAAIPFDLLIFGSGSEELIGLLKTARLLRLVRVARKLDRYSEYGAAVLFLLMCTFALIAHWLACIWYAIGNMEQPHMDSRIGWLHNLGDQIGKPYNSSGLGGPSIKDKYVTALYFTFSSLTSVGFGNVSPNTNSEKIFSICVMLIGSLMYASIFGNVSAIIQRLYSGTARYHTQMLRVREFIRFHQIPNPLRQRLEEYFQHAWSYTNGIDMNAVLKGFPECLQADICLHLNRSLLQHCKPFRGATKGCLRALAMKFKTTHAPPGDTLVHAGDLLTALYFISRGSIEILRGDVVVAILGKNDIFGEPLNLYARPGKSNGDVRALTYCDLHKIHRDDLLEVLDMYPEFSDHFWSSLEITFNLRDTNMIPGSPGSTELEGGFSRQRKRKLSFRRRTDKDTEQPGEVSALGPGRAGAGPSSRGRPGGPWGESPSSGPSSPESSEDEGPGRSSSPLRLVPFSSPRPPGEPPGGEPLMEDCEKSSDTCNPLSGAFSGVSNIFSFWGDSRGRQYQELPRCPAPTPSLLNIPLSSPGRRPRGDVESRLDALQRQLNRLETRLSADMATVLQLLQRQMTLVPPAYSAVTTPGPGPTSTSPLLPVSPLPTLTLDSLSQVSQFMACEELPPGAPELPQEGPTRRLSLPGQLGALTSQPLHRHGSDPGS
As to `Cc1cccc(OCC(=O)NNC(=O)c2ccc([N+](=O)[O-])cc2)c1`, the “hERG current change (%, negative = inhibition) at 1uM” value was determined as 11.8%. Under `COc1ccc(-c2[nH]n(-c3ccc([N+](=O)[O-])cc3)c(=O)c2C=NCCN2CCNCC2)cc1` stands 2.86%; under `CCNc1oc(/C=C/c2ccc(OCC)cc2)nc1C#N`, 15.7%; under `Cc1cc2ncn(CCOc3ccccc3)c2cc1C`, 8.19%. As for `CCCCn1c(N)c(N(CC)C(=O)CN2C(=O)NC(C)(c3ccccc3)C2=O)c(=O)[nH]c1=O` (stereo not drawn), the “hERG current change (%, negative = inhibition) at 1uM” value is 12.9%.

Turning to `CCCC(=O)NC(c1ccco1)c1cc(Cl)c2cccnc2c1O` (stereo not drawn), the “hERG current change (%, negative = inhibition) at 1uM” value turned out to be 17.4%.

On to `COC(=O)c1cc(C)ccc1OCc1ccc([N+](=O)[O-])cc1`, for which the “hERG current change (%, negative = inhibition) at 1uM” value stood at 4.34%. The same measure for `COc1cc(OC)cc(C(=O)Nc2ccc3c(c2)OCCO3)c1`: 7.93%; for `CSc1ccccc1OCc1cc(C(=O)N2CCN(C)C(c3ccccc3)C2)no1` (stereo not drawn): 5.67%; for `Cn1c(=O)c2c(nc(-n3ccnc3)n2Cc2ccc([N+](=O)[O-])cc2)n(C)c1=O`: -10.9%. Regarding `CC(C)(C)NC(=O)CSc1nc(N)c(-c2ccccc2)c(=O)[nH]1`, the “hERG current change (%, negative = inhibition) at 1uM” value is reported as 14.9%. As for `CCOC(CCn1c(SCC(=O)NC2CCCC2)nc2ccccc2c1=O)OCC`, the “hERG current change (%, negative = inhibition) at 1uM” value stood at 10.8%.

Turning to `N#CCN1C(=O)NC2(CCCc3sccc32)C1=O` (stereo not drawn), the “hERG current change (%, negative = inhibition) at 1uM” value came out at 10.9%. With `O=C(NC1CCCCC1)c1cc([N+](=O)[O-])ccc1N1CCCC1`, the “hERG current change (%, negative = inhibition) at 1uM” value was 5.41%. Under `CCC(C)NC(=O)c1cc2cc3ccc(OC)cc3nc2s1` (stereo not drawn) stands 5.26%; under `COC(=O)c1ccc(/C=C(\C#N)C(=O)NC(C)c2ccccc2)cc1` (stereo not drawn), 16%; under `O=C(c1ccccc1)C(O)c1ccccc1` (stereo not drawn), 9.88%. Consider `CC(Nc1nc(-c2ccc(F)cc2)cs1)c1nc2cc(Cl)c(Cl)cc2n1CCCO` (stereo not drawn), for which the “hERG current change (%, negative = inhibition) at 1uM” value came out at 13.4%. Under `COC(=O)c1ccc(C)c(NC(=O)c2c(-c3ccccc3)noc2C)c1` stands -6.64%. Under `COc1ccc(C)cc1-n1nnnc1SCC(=O)NNC(=O)c1ccc([N+](=O)[O-])cc1` stands -4.14%; under `O=C(NCc1ccco1)c1cccc2ccccc12`, 8.21%. Under `Cc1ccc(NS(=O)(=O)c2ccc(-n3cccn3)cc2)cc1C` stands 19.4%; under `CCN1C(=O)C(O)(C2COC(C)(C)CC2=O)c2cc(Br)ccc21` (stereo not drawn), -0.0769%; under `COc1ccc(NC(=O)C2C3C=CC(C3)C2C(=O)NCc2ccco2)c(OC)c1` (stereo not drawn), 13.7%.

Source of the values: PMC4336329 (PLoS ONE, 2015).
